At least one peptide structure holds a part that was inferred or is arguable (an end, a ring closure or a residue). Where a SMILES comes first, the peptide text is derived from it. The star is where a group is joined. Acetyl(2-(4-imidazolyl)) = O=C(Cc1c[nH]cn1)*
Columns and labels:
rat GLP-1 receptor = biological target: T1, rat GLP-1 receptor (Rattus norvegicus, UniProt P32301); assay: cAMP Assay (in vitro receptor binding assay) on membrane preparation; assay type: biochemical; details: cAMP production, CHO membranes expressing rat GLP-1 receptor; mean ± spread
T1 construct: expressed in transfected cells; host or cells: CHO DXB-11 (Chinese hamster ovary) cells, used as a membrane preparation
T1 sequence (P32301 22-463): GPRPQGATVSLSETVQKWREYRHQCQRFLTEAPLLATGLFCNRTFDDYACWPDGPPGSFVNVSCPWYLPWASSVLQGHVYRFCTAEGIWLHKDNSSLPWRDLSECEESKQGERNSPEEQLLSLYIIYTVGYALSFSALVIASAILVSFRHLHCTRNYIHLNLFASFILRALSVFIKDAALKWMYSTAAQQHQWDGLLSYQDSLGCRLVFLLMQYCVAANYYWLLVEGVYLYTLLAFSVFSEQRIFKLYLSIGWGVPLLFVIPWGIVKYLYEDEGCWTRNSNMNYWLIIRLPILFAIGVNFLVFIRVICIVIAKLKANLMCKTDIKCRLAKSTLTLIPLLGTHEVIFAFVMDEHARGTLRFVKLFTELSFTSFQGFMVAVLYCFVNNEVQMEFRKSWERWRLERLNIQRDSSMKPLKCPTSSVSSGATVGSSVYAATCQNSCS

[1] = system: Sprague Dawley or Zucker Diabetic Fatty rats; assay: Rat IV Glucose (1 g/kg) Tolerance Test; assay type: in vivo; details: for Insulin Change AUC: 0-15 min
Description: a) Glucose Tolerance Tests
Experiments were conducted in overnight-fasted, conscious, male Sprague Dawley (Charles River) or Zucker Diabetic Fatty (Genetic Models, Inc.) rats weighing approximately 250 (Sprague Dawley rats) or 300 (Zucker Diabetic Fatty rats) grams. Four to five days prior the study, rats were anesthetized with isoflurane, and a polyethylene (PE50) catheter was inserted into the right jugular vein. The catheter was secured with a wound clip, filled with saline containing heparin (2% sodium heparin), and closed with a small stainless steel plug.
After a sixteen-hour fast, twelve chronically cannulated rats were separated into four groups of three rats per group. 0.4 ml of blood was taken from the tail vein, collected into a microtainer tube containing lithium heparin, and immediately placed on ice (zero minute sample). A glucose bolus (1.0 g/kg; 50% glucose (w/v) in water) was administered via the indwelling jugular cannula, and the cannula was rinsed with 200 μl of saline. Twenty seconds later a bolus of test substance 100 μl/100 g body weight of either vehicle (saline containing 0.3% (w/v) bovine serum albumin) or vehicle containing analog! was administered through the jugular cannula, and the cannula was rinsed as before. Rats were bled from the tail again at 2, 5, 10, 20 and 30 minutes after the administration of the glucose bolus, and the samples were treated as described above. At the end of the experiment, blood samples were centrifuged, and the plasma was collected.
Plasma glucose concentrations were determined the day of the experiment using a coupled hexokinase procedure in a clinical chemistry analyzer. Plasma for insulin determinations were diluted with zero calibrator and frozen at -20° C. until time for analysis. Insulin concentrations were determined using a commercial radioimmunoassay kit with rat insulin as the standard.
Insulin change (the change in insulin from the baseline value) was calculated as the difference between the insulin concentration at time t and the insulin concentration at zero time. The area under the insulin change curve was calculated using the trapezoidal rule. Plasma glucose change (the increase in plasma glucose above the baseline value) was calculated as the difference between the plasma glucose concentration at time t and the plasma glucose concentration at zero time. The area under the plasma glucose change curve was calculated using the trapezoidal rule. Values are listed as the mean ± the standard error of the mean (SEM).

## CC[C@H](C)[C@H](NC(=O)[C@H](Cc1ccccc1)NC(=O)[C@H](CCC(=O)O)NC(=O)[C@H](CCCCN)NC(=O)[C@H](C)NC(=O)[C@H](C)NC(=O)[C@H](CCC(N)=O)NC(=O)CNC(=O)[C@H](CCC(=O)O)NC(=O)[C@H](CC(C)C)NC(=O)[C@H](Cc1ccc(O)cc1)NC(=O)[C@H](CO)NC(=O)[C@H](CO)NC(=O)[C@@H](NC(=O)[C@H](CC(=O)O)NC(=O)[C@H](CO)NC(=O)[C@@H](NC(=O)[C@H](Cc1ccccc1)NC(=O)[C@@H](NC(=O)CNC(=O)[C@H](CCC(=O)O)NC(=O)[C@H](C)NC(=O)Cc1c[nH]cn1)[C@@H](C)O)[C@@H](C)O)C(C)C)C(=O)N[C@@H](C)C(=O)N[C@@H](Cc1c[nH]c2ccccc12)C(=O)N[C@@H](CC(C)C)C(=O)N[C@H](C(=O)N[C@@H](CCCCN)C(=O)NCC(=O)N[C@@H](CCCNC(=N)N)C(N)=O)C(C)C [N-imidazoacetyl-GLP-1(8-36)NH2, N-Imidazoacetyl-GLP-1(8-36)NH2]
Rat GLP-1 receptor
  % Relative Potency: 24.2 ± 9.8%
[1]; IV dose 0.05 mg/kg
  Insulin Change at 10 min: 2.5 ng/mL
  Max Insulin Change: 4.9 ng/mL
  Insulin Change AUC: 49 ± 6 ng·min/mL
[1]; IV dose 0.15 mg/kg
  Insulin Change at 10 min: 2.8 ng/mL
  Max Insulin Change: 5.9 ng/mL
  Insulin Change AUC: 55 ± 8 ng·min/mL
[1]; IV dose 0.3 mg/kg
  Insulin Change at 10 min: 5.5 ng/mL
  Max Insulin Change: 10.5 ng/mL
  Insulin Change AUC: 98 ± 29 ng·min/mL
[1]; IV dose 0.6 mg/kg
  Insulin Change at 10 min: 4.8 ng/mL
  Max Insulin Change: 13.0 ng/mL
  Insulin Change AUC: 105 ± 4 ng·min/mL
[1]; IV dose 0.92 mg/kg
  Insulin Change at 10 min: 4.0 ng/mL
  Max Insulin Change: 12.0 ng/mL
  Insulin Change AUC: 95 ± 11 ng·min/mL
[1]; IV dose 1.2 mg/kg
  Insulin Change at 10 min: 6.0 ng/mL
  Max Insulin Change: 13.7 ng/mL
  Insulin Change AUC: 117 ± 6 ng·min/mL

## CC[C@H](C)[C@H](NC(=O)[C@H](Cc1ccccc1)NC(=O)[C@H](CCC(=O)O)NC(=O)[C@H](CCCNC(=N)N)NC(=O)[C@H](C)NC(=O)[C@H](C)NC(=O)[C@H](CCC(N)=O)NC(=O)CNC(=O)[C@H](CCC(=O)O)NC(=O)[C@H](CC(C)C)NC(=O)[C@H](Cc1ccc(O)cc1)NC(=O)[C@H](CO)NC(=O)[C@H](CO)NC(=O)[C@@H](NC(=O)[C@H](CC(=O)O)NC(=O)[C@H](CO)NC(=O)[C@@H](NC(=O)[C@H](Cc1ccccc1)NC(=O)[C@@H](NC(=O)CNC(=O)[C@H](CCC(=O)O)NC(=O)[C@H](C)NC(=O)Cc1c[nH]cn1)[C@@H](C)O)[C@@H](C)O)C(C)C)C(=O)N[C@@H](C)C(=O)N[C@@H](Cc1c[nH]c2ccccc12)C(=O)N[C@@H](CC(C)C)C(=O)N[C@H](C(=O)N[C@@H](CCCCN)C(=O)NCC(=O)N[C@@H](CCCNC(=N)N)C(=O)NCC(=O)O)C(C)C [N-imidazoacetyl-Arg^26-GLP-1(8-37)OH] ({Acetyl(2-(4-imidazolyl))}-AEGTFTSDVSSYLEGQAAREFIAWLVKGRG-OH)
Rat GLP-1 receptor
  % Relative Potency: 95.0 ± 14.3%
[1]; IV dose 1.2 mg/kg
  Insulin Change at 10 min: 3.6 ng/mL
  Max Insulin Change: 9.8 ng/mL
  Insulin Change AUC: 85 ± 13 ng·min/mL
[1]; IV dose 2.4 mg/kg
  Insulin Change at 10 min: 9.8 ng/mL
  Max Insulin Change: 16.5 ng/mL
  Insulin Change AUC: 170 ± 16 ng·min/mL

## CC[C@H](C)[C@H](NC(=O)[C@H](Cc1ccccc1)NC(=O)[C@H](CCC(=O)O)NC(=O)[C@H](CCCNC(=N)N)NC(=O)[C@H](C)NC(=O)[C@H](C)NC(=O)[C@H](CCC(N)=O)NC(=O)CNC(=O)[C@H](CCC(=O)O)NC(=O)[C@H](CC(C)C)NC(=O)[C@H](Cc1ccc(O)cc1)NC(=O)[C@H](CO)NC(=O)[C@H](CO)NC(=O)[C@@H](NC(=O)[C@H](CC(=O)O)NC(=O)[C@H](CO)NC(=O)[C@@H](NC(=O)[C@H](Cc1ccccc1)NC(=O)[C@@H](NC(=O)CNC(=O)[C@H](CCC(=O)O)NC(=O)[C@H](C)NC(=O)[C@@H](N)Cc1c[nH]cn1)[C@@H](C)O)[C@@H](C)O)C(C)C)C(=O)N[C@@H](C)C(=O)N[C@@H](Cc1c[nH]c2ccccc12)C(=O)N[C@@H](CC(C)C)C(=O)N[C@H](C(=O)N[C@@H](CCCCN)C(=O)NCC(=O)N[C@@H](CCCNC(=N)N)C(=O)NCC(=O)O)C(C)C [Arg^26-GLP-1(7-37)OH, Arg^26 -GLP-1(7-37)OH]
Rat GLP-1 receptor
  % Relative Potency: 140.8 ± 28.7%

Source: patent US5512549A, “Glucagon-like insulinotropic peptide analogs, compositions, and methods of use” (Eli Lilly and Company, priority 1994, dated 1996)
